Where a name gives a salt, the structure may show the parent alone. Whole data set: some 2,800 compounds, median “cell viability relative to vehicle” near 1.1, cut for the lowest 2% near 0.19. Some of the results follow.

This test relates to NCI-H2228 parental. The test can be described thus: cell viability relative to vehicle (fraction of vehicle); NCI-H2228 is an ALK-positive lung cancer line and DTP means drug-tolerant persister; higher = less growth inhibition. Conditions: 100 nM; treatment time 6 days. A digest of the protocol: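 Drug-tolerant persister NCI-H2228 cells, produced by 13 days in 1000 nM of a targeted drug, and their parental counterparts were seeded into 384-well plates and, the following day, given the 3114-agent TargetMol anti-cancer compound library at 100 nM or DMSO vehicle. After 6 days, the CellTiter-Glo 3D Cell Viability Assay was used to read ATP. Each entry reports viability compared with vehicle-treated cells.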
On to `O=C(Nc1cccc(-c2ccccc2)c1)OC1CCCCC1`, for which the cell viability was 1.01. As to `CC(C)=CCC[C@](C)(O[C@@H]1O[C@H](CO)[C@@H](O)[C@H](O)[C@H]1O)[C@H]1CC[C@]2(C)[C@@H]1[C@H](O)C[C@@H]1[C@@]3(C)CC[C@H](O[C@@H]4O[C@H](CO)[C@@H](O)[C@H](O)[C@H]4O)C(C)(C)[C@@H]3CC[C@]12C` [Ginsenoside F2], the cell viability was found to be 1.03.

In the case of `CCCCCCCCCCCCCCCC(=O)NCCO` [Palmidrol], the cell viability turned out to be 1.01. The same measure for `CO[C@@H](C(=O)N1Cc2[nH]nc(NC(=O)c3ccc(N4CCN(C)CC4)cc3)c2C1)c1ccccc1` [Danusertib]: 0.841. Turning to `Cc1c(Cc2ccc3ccccc3n2)c2cc(F)ccc2n1CC(=O)O` [Timapiprant], the cell viability was 0.96.

For `C=CC(=O)N1CCC(Oc2cc3c(Nc4ccc(Cl)c(Cl)c4F)ncnc3cc2OC)CC1` [Poziotinib], the cell viability was 0.975.

With `C[C@H](NC(=O)CNC(=O)c1cccc(Cl)c1)c1ccccc1`, the cell viability was found to be 1.09.

In the case of `Cc1cc(=O)n(-c2ccccc2)n1C` [Antipyrine], the cell viability is 1.07. As for `COc1c(O[C@@H]2O[C@H](CO)[C@@H](O)[C@H](O)[C@H]2O)cc2occ(-c3ccc(O)cc3)c(=O)c2c1O` [Tectoridin], the cell viability was 1.11.

As for `Clc1ccc(COC(Cn2ccnc2)c2ccc(Cl)cc2Cl)c(Cl)c1` (centres undefined) [Miconazole], the cell viability amounted to 1.12.

For the compound `Cn1ncc(Cl)c1-c1cc(C(=O)N[C@H](CN)Cc2cccc(F)c2)sc1Cl` [Afuresertib], the cell viability was determined as 0.718. The same measure for `O=C(O)c1cc(O)c2c(c1)[C@@H]([C@H]1c3cc(C(=O)O)cc(O)c3C(=O)c3c(O[C@@H]4O[C@H](CO)[C@@H](O)[C@H](O)[C@H]4O)cccc31)c1cccc(O[C@@H]3O[C@H](CO)[C@@H](O)[C@H](O)[C@H]3O)c1C2=O` [Sennoside B]: 1.11; for `Cc1ccc(-c2ncc(Cl)cc2-c2ccc(S(C)(=O)=O)cc2)cn1` [Etoricoxib]: 1.13; for `CC(C)=CC(=O)O[C@H]1Cc2cc3ccc(=O)oc3cc2OC1(C)C` [Decursin]: 1.04. The same measure for `COc1cc2c(c(OC)c1OC)-c1c(cc(OC)c(OC)c1OC)CC(C)C(C)C2` (centres undefined) [Schizandrin A]: 1.11. As to `COc1cc(O)cc(CCc2ccc(O)c(OC)c2)c1` [Gigantol], the cell viability is 0.972. The same measure for `CC(C)/N=c1\cc2n(-c3ccc(Cl)cc3)c3ccccc3nc-2cc1Nc1ccc(Cl)cc1` [Clofazimine]: 1.09. The same measure for `O=C1Cc2cc(CCN3CCN(c4nsc5ccccc45)CC3)c(Cl)cc2N1` [Ziprasidone hydrochloride monohydrate]: 1.1; for `CCN[C@H]1C[C@H](C)S(=O)(=O)c2sc(S(N)(=O)=O)cc21` [Dorzolamide hydrochloride]: 1.08.

The record behind these values is the supplement of paper PMC10600219.
